The values that follow come from paper PMC5668364, “Structure and functional dynamics of the mitochondrial Fe/S cluster synthesis complex” (Nature Communications, 2017).

As a reminder, the stoichiometry N is the number of molecules, sites or subunits per partner or assembly.

This data set concerns the molecule itself. As to the kind of experiment: SEC-MALS; human (NIA)2 complex on a Wyatt SEC WTC 030S5 column with miniDAWN TREOS and Optilab tREX. In general terms: In gel filtration, larger molecules generally elute earlier.

B1: human NFS1 […] (Δ[…]) with N-terminal His6-tag (enzyme)
chain: not shown
modifications: PLP covalently bound to Lys258 as an internal aldimine
notes: human cysteine desulfurase NFS1, […] (Δ[…]), plasmid pZM2; forms a dimer in the (NIA)2 crystal; also called His-tagged human NFS1; cysteine desulfurase NFS1; source: E. coli One Shot BL21 Star (DE3), co-expressed with ISD11, purified (Ni-NTA)
Turning to B1, the “stoichiometry N” value was found to be 2.
